The target of assay [1] is T1, S. cerevisiae (Sc) Csm1^69–181 (S. cerevisiae) (UniProt P25651).
T1 sequence: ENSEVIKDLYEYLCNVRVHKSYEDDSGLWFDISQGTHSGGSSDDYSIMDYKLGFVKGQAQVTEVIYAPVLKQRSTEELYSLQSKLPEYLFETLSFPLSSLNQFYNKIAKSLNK
Description: co-expression and co-purification; co-expressed in E. coli and purified as a stable complex (Ni affinity, ion exchange, size exclusion).

In assay [2] the target is T2, Sc His6-Csm1^69–190 (S. cerevisiae) (UniProt P25651).
T2 sequence: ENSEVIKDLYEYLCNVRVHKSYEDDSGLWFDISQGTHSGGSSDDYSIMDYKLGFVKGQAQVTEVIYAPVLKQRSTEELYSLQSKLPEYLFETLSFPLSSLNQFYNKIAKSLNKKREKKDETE
Put plainly: pull-down; Ni2+ pull-down: 10 μl in vitro translated 35S-labelled MBP-fused prey with 10 μg His6-tagged bait (S. pombe Csm1 125–261 or S. cerevisiae Csm1 69–190) in 50 μl 20 mM HEPES pH 7.5, 150 mM NaCl, 20 mM imidazole, 5% glycerol, 1 mM DTT, 0.1% NP-40, 90 min at 4 °C, then Ni-NTA beads; SDS-PAGE and phosphorimager; only the target purified.

Assay [3] deals with T3, S. pombe His6-Csm1^125–261 (S. pombe) (UniProt O13684).
T3 sequence: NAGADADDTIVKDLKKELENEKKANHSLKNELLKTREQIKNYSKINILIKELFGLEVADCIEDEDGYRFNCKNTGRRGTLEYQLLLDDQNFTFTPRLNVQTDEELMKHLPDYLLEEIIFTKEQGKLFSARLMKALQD
The assay is described as above.

In assay [4] the target is T4, Sp Mis13 5–17 peptide (Dsn1-N/Box 1), fluorescein isothiocyanate-labelled (S. pombe).
T4 sequence (peptide, fluorescein isothiocyanate-labelled at its N-terminus): PEEQEGFVFVRKG
Description: fluorescence polarisation; Csm1 125–261 at 20 nM-250 μM with 20 nM FITC-labelled Mis13 5–17 peptide; 20 mM Tris 7.5, 300 mM NaCl, 10% glycerol, 0.01% NP-40, 1 mM DTT; triplicate; single-site binding model; both purified. For orientation: In fluorescence polarisation assays a small probe gives low polarisation when free and higher when bound to something large.

Residue numbers refer to the chain shown, from its start. Numbers in names are those of the source. Results are given in words; binding and its absence hold for the method and conditions named. For some assays here: Binding seen in cells or lysates may run through a third protein. Some results given as binding are weak or reduced against the parent protein; the word gives no strength. For some assays here: Tags and fused reporters may be left off the sequences shown.

As for DLKFKRHKNKHIQGFPTLGERLDNLQDIKKAKRVENFNSS (domain or fragment, UniProt P40568 71-110) [Sc Dsn1^71–110 (co-expressed, without MBP)], the binding entry in assay [1] was “binds”.
Consider DLKFKRHKNKHIQGFPTDGERDDNDQDIKKAKRVENFNSS (domain or fragment, UniProt P40568 71-110) [MBP-S. cerevisiae Dsn1 71–110 L88D L92D L95D], for which, in assay [2], the binding result is reported as “binds”.
The same measure, in the same setting: in the case of DAKAKRHKNKHIQGFPTLGERLDNLQDIKKAKRVENFNSS (domain or fragment, UniProt P40568 71-110) [MBP-S. cerevisiae Dsn1 71–110 L72A F74A] it was “binds”.
In the case of DLKFKRHKNKHIQGFPTLGERLDNLQDIKKAKRDENDNSS (domain or fragment, UniProt P40568 71-110) [MBP-S. cerevisiae Dsn1 71–110 V104D F107D], the binding result in assay [2] is given as “no binding”.
As to DLKFKRHKNKHIQGFPTLGERLDNLQDIKKAKRVENFNSS (domain or fragment, UniProt P40568 71-110) [MBP-S. cerevisiae Dsn1 residues 71–110 (Box 1-2-3 region), wild type, in vitro translated], the binding result in assay [2] was “binds”.
On the same count and under the same terms, the value for DLKFKRHKNKHIQGFPTAGERADNAQDIKKAKRVENFNSS (domain or fragment, UniProt P40568 71-110) [MBP-S. cerevisiae Dsn1 71–110 L88A L92A L95A] was “binds”; that for DLKFKRHKNKHIQGFPTLGERLDNLQDIKKAKRAENANSS (domain or fragment, UniProt P40568 71-110) [MBP-S. cerevisiae Dsn1 71–110 V104A F107A] was “no binding”; that for DLKFKRHKNKHIQGFPTLGKRLDKLQKIKKAKRVENFNSS (domain or fragment, UniProt P40568 71-110) [MBP-S. cerevisiae Dsn1 71–110 E90K N94K D97K] was “binds”.
The same measure, in the same setting: in the case of DLKFKRHKNKHIQGFPTLGARLDALQAIKKAKRVENFNSS (domain or fragment, UniProt P40568 71-110) [MBP-S. cerevisiae Dsn1 71–110 E90A N94A D97A] it was “binds”.

B1: MBP-S. pombe Mis13 (Dsn1) residues 1–100, wild type, in vitro translated (domain or fragment, UniProt Q9UUB5 1-100)
chain: MKRKPEEQEGFVFVRKGKEKAGSKRRKSSVEDDPDTSQTDGLVELPVSDTPIVKRNKELRKGKGRRSSLDQRGKRASSIGTGFEALPHADVPSHEYYRHI
Regarding B1, in assay [3], the binding entry was “binds”.

B2: S. pombe Csm1^125–261 I241D mutant (domain or fragment, UniProt O13684 125-261)
chain: T3 sequence with I117D
Take B2: in assay [4], the binding entry is listed as “no binding (tested: 250 μM)”.

The values are drawn from PMC6823300, “The molecular basis of monopolin recruitment to the kinetochore” (Chromosoma, 2019).
